Results reported in the supplement of paper PMC3334620.
The full ranking holds about 33,000 sequences; the median of “E-score (-0.5 to 0.5)” is about -0.017, and the highest 2% start at about 0.3. This is one part of the list.

Target: T1, Sut1 (UniProt P53032)
T1 sequence: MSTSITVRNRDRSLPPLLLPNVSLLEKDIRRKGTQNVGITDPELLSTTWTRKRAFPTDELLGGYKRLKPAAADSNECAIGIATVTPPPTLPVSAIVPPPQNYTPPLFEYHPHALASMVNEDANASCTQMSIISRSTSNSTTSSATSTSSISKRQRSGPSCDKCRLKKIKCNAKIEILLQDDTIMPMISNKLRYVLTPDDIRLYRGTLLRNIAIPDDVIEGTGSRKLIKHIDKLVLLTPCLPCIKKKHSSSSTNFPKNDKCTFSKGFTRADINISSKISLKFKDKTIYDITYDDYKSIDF
Assay: PBM E-score (8-mer binding enrichment) (E-score (-0.5 to 0.5)); higher = stronger / more preferred TF binding; most listed sequences are background and not binding sites
Conditions: protein concentration: 200 nM; construct: GST-full length
Procedure, shortened: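 Bound GST-tagged yeast transcription factors, applied at about 100-200 nM to double-stranded universal all-10-mer Agilent arrays, were detected with fluorescent anti-GST. Scans were normalised with masliner. A modified Wilcoxon-Mann-Whitney statistic, the E-score, was assigned to each ungapped eight-base word pooled with its reverse complement by the Universal PBM Analysis Suite.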

Row | Sequence | PBM E-score
1 | AAGTTACA | -0.00447
2 | AGTCGCGA | 0.139
3 | TAGTGTGA | 0.0274
4 | AGCTATCC | -0.181
5 | CCCGAGGC | -0.226
6 | ACGGGTTA | -0.172
7 | CCAACTCG | -0.141
8 | ATGCCAAG | -0.0519
9 | GTACACTA | -0.06
10 | TCCATAGA | 0.00973
11 | CCTGCCGA | -0.085
12 | CTATGGCC | -0.141
13 | CCCGGGAC | 0.00314
14 | CTTGTGTC | -0.0867
15 | TCACAAAA | 0.185
16 | AGCACGGA | 0.292
17 | CCCTGGAA | -0.272
18 | CGTTGTCC | 0.11
19 | ACGTATCC | -0.251
20 | TGGATAAA | 0.263
21 | ACACACCC | -0.137
22 | ACCTCACA | -0.0658
23 | CACCGCGG | 0.146
24 | ACCTCGAG | 0.0831
25 | CATTATTA | 0.216

Row | Sequence | PBM E-score
26 | CGGACCGA | 0.244
27 | CCTTAAAC | -0.059
28 | GAGTCTCA | -0.00234
29 | AGACATTA | 0.0395
30 | TGGGGACA | -0.0716
31 | ATTGTGAA | 0.164
32 | CAAAGGCG | -0.247
33 | GCAAGGTA | -0.00579
34 | GGATACAA | 0.0825
35 | CCTATGAA | -0.202
36 | CAGCCCCA | -0.231
37 | CAAGATCA | -0.0348
38 | ACCCCACC | -0.072
39 | AAATCCCT | 0.0459
40 | ATAATCTG | 0.0727
41 | AGGATCAA | 0.126
42 | CGACTCAG | -0.0587
43 | ACTTACTA | 0.118
44 | ATACCCCA | -0.13
45 | CTTTCTAA | 0.17
46 | AATCTGGA | -0.0446
47 | AGCGGCTC | -0.00165
48 | AATACATC | 0.159
49 | CCGGATAC | 0.104
50 | GGCCATAA | -0.114

Row | Sequence | PBM E-score
51 | CGAACGAG | -0.0896
52 | GTCGTTGA | -0.0946
53 | CCATTAGG | -0.249
54 | GGCGGCCC | -0.177
55 | AACATTCA | 0.0304
56 | CGAGAGAG | 0.024
57 | AATACGAC | -0.0431
58 | AAGGTACG | -0.0345
59 | ACTTTGGG | -0.00343
60 | GTGAATGA | 0.123
61 | CAGACTGC | -0.135
62 | AACCCCTA | -0.206
63 | GCCAGCGC | -0.186
64 | ACTCGTAG | -0.0283
65 | AGACCGCG | 0.0201
66 | ACAATTAC | 0.0602
67 | TCTAAGAA | 0.205
68 | ATACTTGA | 0.0447
69 | AGAGATAG | 0.051
70 | GCCGGGCA | -0.174
71 | ACTGGTTG | 0.173
72 | ATCAACGG | 0.0786
73 | CAGATACC | -0.149
74 | AGCCGATC | -0.00257
75 | CCTATCAG | -0.0862

Row | Sequence | PBM E-score
76 | GAAAATGC | 0.174
77 | AGTCAGAC | -0.0551
78 | AGAGCCTG | -0.216
79 | GCAATGCA | -0.125
80 | CCACCTGG | -0.324
81 | ATTTGTGC | 0.00055
82 | CGTGGTAA | -0.115
83 | ATGTTTCG | 0.117
84 | TAAGGAGA | 0.131
85 | ACCGCTAT | 0.00679
86 | CCCTTGAA | -0.103
87 | ATCCACCG | 0.105
88 | CCTCTTTC | -0.118
89 | GCGTGAGC | -0.0579
90 | CAGTTTGG | -0.198
91 | GTCCACCA | -0.0839
92 | CGATATGC | 0.0222
93 | GGTTCTAA | 0.156
94 | CATTACAC | 0.0751
95 | CTCTAACA | -0.0483
96 | CTGAAGGA | -0.15
97 | CATTCTGG | -0.0878
98 | AAGTGGCG | 0.113
99 | AGTAGTCC | 0.296
100 | ACCACGAT | -0.0444

Row | Sequence | PBM E-score
101 | GCTCGTGA | -0.0887
102 | AATTCTTC | 0.246
103 | CTCTAGTA | 0.0068
104 | ATGTCGAA | 0.156
105 | ACCCACCA | -0.106
106 | CATCCGGA | 0.292
107 | TACACTCA | 0.0601
108 | GGGGCGGA | 0.0435
109 | AATGAATG | 0.223
110 | CTTAGAAC | 0.195
111 | CATTAGAG | -0.0818
112 | CCTCGGTC | -0.169
113 | CTAAAACA | 0.151
114 | AGACTCAA | -0.0327
115 | TGTTTTAA | 0.253
116 | CGAATGGA | -0.0926
117 | ACGTTTAC | -0.115
118 | ATTCCCGA | 0.0496
119 | AATTAAAA | 0.2
120 | CATACACA | 0.101
121 | GGGCACAC | -0.305
122 | CACAGGCC | -0.198
123 | CATTTCGA | 0.232
124 | GAGCGGGA | 0.00658
125 | TCATTGAA | 0.151

Row | Sequence | PBM E-score
126 | CTGGAATC | -0.0428
127 | AAATTATA | 0.351
128 | CATCTGGC | -0.181
129 | AAGCCAAA | -0.0102
130 | ACGTTGAG | 0.00881
131 | AACTATGC | 0.189
132 | CTTTAACC | -0.064
133 | CCGGAAGG | 0.169
134 | TAGAATAA | 0.207
135 | ATAAACTG | 0.047
136 | CATAGCCC | -0.196
137 | CTTGGTGA | 0.0672
138 | CCTGAGTA | 0.0256
139 | AATTAAGC | 0.101
140 | CTCAGTAA | -0.1
141 | CTGGCCGC | -0.352
142 | GAATAAGA | 0.132
143 | AGCGATGG | -0.183
144 | AAATGCTG | -0.094
145 | GAGACTAC | -0.0905
146 | AAGACTGA | -0.0309
147 | CCGAAAAC | 0.164
148 | GTACTAAC | 0.0256
149 | CATCAAGG | -0.223
150 | GTCGCTGA | -0.159

Row | Sequence | PBM E-score
151 | GACCACAA | -0.0924
152 | AATGGTAG | 0.261
153 | CCAATTAC | 0.142
154 | ACATACAG | 0.148
155 | CTCCGTGA | 0.407
156 | ACCTACAG | 0.0362
157 | ATGCCCCC | -0.387
158 | AACCCCCC | -0.455
159 | CTAACTGC | -0.0429
160 | CGCAGAGC | -0.103
161 | GCATCTTA | 0.166
162 | CATCGTGC | -0.192
163 | ATCCCGCA | -0.134
164 | AACCGTCG | -0.0536
165 | CCTATGCG | -0.0272
166 | GTCCTTGA | -0.0739
167 | AAAAGCGA | 0.191
168 | GCTTAGGA | 0.0639
169 | ATTATAAG | 0.193
170 | GAGGGCAC | -0.211
171 | CCATTACA | 0.184
172 | CGGAGCCA | 0.294
